# In the supplement of paper PMC8728848:
# The other results are listed elsewhere or left out.
# What was measured:
# Assay in all cases: glycan array binding signal (z-score within array); higher = stronger binding
# Conditions in all cases: glycan notation: IUPAC condensed, linker removed
# [1] = molecular target: Gal(b1-4)Glc
# Method in brief: (§1)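 The binding signal is a Z-score computed within each array. Data were drawn from 3228 arrays in the Consortium for Functional Glycomics database, restricted to those with a known protein sequence. Scores were averaged over arrays of the same protein sequence at different concentrations or buffers, and over linkers, and negative values can be taken as non-binding.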
# [2] = molecular target: Gal(b1-4)Glc6S
# Method in brief: as §1
# [3] = molecular target: Gal(b1-4)GlcNAc
# Method in brief: as §1
# [4] = molecular target: Gal(b1-4)GlcNAc(a1-6)Gal(b1-4)GlcNAc
# Method in brief: as §1
# [5] = molecular target: Gal(b1-4)GlcNAc(b1-2)Man
# Method in brief: as §1
# [6] = molecular target: Gal(b1-4)GlcNAc(b1-2)Man(a1-3)Man(b1-4)GlcNAc(b1-4)GlcNAc
# Method in brief: as §1
# [7] = molecular target: Gal(b1-4)GlcNAc(b1-2)Man(a1-3)[Gal(b1-4)GlcNAc(b1-2)Man(a1-6)]Man(b1-4)GlcNAc(b1-4)GlcNAc
# Method in brief: as §1
# [8] = molecular target: Gal(b1-4)GlcNAc(b1-2)Man(a1-3)[Gal(b1-4)GlcNAc(b1-2)Man(a1-6)]Man(b1-4)GlcNAc(b1-4)[Fuc(a1-6)]GlcNAc
# Method in brief: as §1
# [9] = molecular target: Gal(b1-4)GlcNAc(b1-2)Man(a1-3)[Gal(b1-4)GlcNAc(b1-2)Man(a1-6)][Gal(b1-4)GlcNAc(b1-4)]Man(b1-4)GlcNAc(b1-4)[Fuc(a1-6)]GlcNAc
# Method in brief: as §1
# [10] = molecular target: Gal(b1-4)GlcNAc(b1-2)Man(a1-3)[Gal(b1-4)GlcNAc(b1-2)Man(a1-6)][GlcNAc(b1-4)]Man(b1-4)GlcNAc(b1-4)[Fuc(a1-6)]GlcNAc
# Method in brief: as §1
# [11] = molecular target: Gal(b1-4)GlcNAc(b1-2)Man(a1-3)[GlcNAc(b1-2)Man(a1-6)]Man(b1-4)GlcNAc(b1-4)GlcNAc
# Method in brief: as §1
# [12] = molecular target: Gal(b1-4)GlcNAc(b1-2)Man(a1-3)[GlcNAc(b1-4)][Gal(b1-4)GlcNAc(b1-2)Man(a1-6)]Man(b1-4)GlcNAc(b1-4)GlcNAc
# Method in brief: as §1
# [13] = molecular target: Gal(b1-4)GlcNAc(b1-2)Man(a1-3)[Man(a1-6)]Man(b1-4)GlcNAc(b1-4)GlcNAc
# Method in brief: as §1
# [14] = molecular target: Gal(b1-4)GlcNAc(b1-2)Man(a1-6)Man(b1-4)GlcNAc(b1-4)GlcNAc
# Method in brief: as §1
# [15] = molecular target: Gal(b1-4)GlcNAc(b1-2)Man(a1-6)[GlcNAc(b1-2)Man(a1-3)]Man(b1-4)GlcNAc(b1-4)GlcNAc
# Method in brief: as §1
# [16] = molecular target: Gal(b1-4)GlcNAc(b1-2)Man(a1-6)[Man(a1-3)]Man(b1-4)GlcNAc(b1-4)GlcNAc
# Method in brief: as §1
# [17] = molecular target: Gal(b1-4)GlcNAc(b1-2)[Gal(b1-4)GlcNAc(b1-4)]Man(a1-3)[Gal(b1-4)GlcNAc(b1-2)Man(a1-6)]Man(b1-4)GlcNAc(b1-4)GlcNAc
# Method in brief: as §1
# [18] = molecular target: Gal(b1-4)GlcNAc(b1-2)[Gal(b1-4)GlcNAc(b1-4)]Man(a1-3)[Gal(b1-4)GlcNAc(b1-2)[Gal(b1-4)GlcNAc(b1-6)]Man(a1-6)]Man(b1-4)GlcNAc(b1-4)GlcNAc
# Method in brief: as §1
# [19] = molecular target: Gal(b1-4)GlcNAc(b1-2)[Gal(b1-4)GlcNAc(b1-4)]Man(a1-3)[GlcNAc(b1-4)][Gal(b1-4)GlcNAc(b1-2)Man(a1-6)]Man(b1-4)GlcNAc(b1-4)GlcNAc
# Method in brief: as §1
# [20] = molecular target: Gal(b1-4)GlcNAc(b1-2)[Gal(b1-4)GlcNAc(b1-4)]Man(a1-3)[GlcNAc(b1-4)][Gal(b1-4)GlcNAc(b1-2)[Gal(b1-4)GlcNAc(b1-6)]Man(a1-6)]Man(b1-4)GlcNAc(b1-4)GlcNAc
# Method in brief: as §1
# [21] = molecular target: Gal(b1-4)GlcNAc(b1-2)[Gal(b1-4)GlcNAc(b1-6)]Man(a1-6)[Gal(b1-4)GlcNAc(b1-2)Man(a1-3)]Man(b1-4)GlcNAc(b1-4)GlcNAc
# Method in brief: as §1
# [22] = molecular target: Gal(b1-4)GlcNAc(b1-2)[Gal(b1-4)GlcNAc(b1-6)]Man(a1-6)[Gal(b1-4)GlcNAc(b1-2)Man(a1-3)]Man(b1-4)GlcNAc(b1-4)[Fuc(a1-6)]GlcNAc
# Method in brief: as §1
# [23] = molecular target: Gal(b1-4)GlcNAc(b1-2)[Gal(b1-4)GlcNAc(b1-6)]Man(a1-6)[GlcNAc(b1-4)][Gal(b1-4)GlcNAc(b1-2)Man(a1-3)]Man(b1-4)GlcNAc(b1-4)GlcNAc
# Method in brief: as §1
# [24] = molecular target: Gal(b1-4)GlcNAc(b1-2)[Gal(b1-4)GlcNAc(b1-6)]Man(a1-6)[GlcNAc(b1-4)][Gal(b1-4)GlcNAc(b1-2)[Gal(b1-4)GlcNAc(b1-4)]Man(a1-3)]Man(b1-4)GlcNAc(b1-4)[Fuc(a1-6)]GlcNAc
# Method in brief: as §1
# [25] = molecular target: Gal(b1-4)GlcNAc(b1-3)Gal(b1-3)GalNAc
# Method in brief: as §1
# [26] = molecular target: Gal(b1-4)GlcNAc(b1-3)Gal(b1-3)GlcNAc
# Method in brief: as §1
# [27] = molecular target: Gal(b1-4)GlcNAc(b1-3)Gal(b1-4)Glc
# Method in brief: as §1
# [28] = molecular target: Gal(b1-4)GlcNAc(b1-3)Gal(b1-4)GlcNAc
# Method in brief: as §1
# [29] = molecular target: Gal(b1-4)GlcNAc(b1-3)Gal(b1-4)GlcNAc(b1-2)Man(a1-3)[Gal(b1-4)GlcNAc(b1-3)Gal(b1-4)GlcNAc(b1-2)Man(a1-6)]Man(b1-4)GlcNAc(b1-4)GlcNAc
# Method in brief: as §1
# [30] = molecular target: Gal(b1-4)GlcNAc(b1-3)Gal(b1-4)GlcNAc(b1-2)Man(a1-3)[Gal(b1-4)GlcNAc(b1-3)Gal(b1-4)GlcNAc(b1-2)Man(a1-6)]Man(b1-4)GlcNAc(b1-4)[Fuc(a1-6)]GlcNAc
# Method in brief: as §1
# [31] = molecular target: Gal(b1-4)GlcNAc(b1-3)Gal(b1-4)GlcNAc(b1-2)[Gal(b1-4)GlcNAc(b1-3)Gal(b1-4)GlcNAc(b1-6)]Man(a1-6)[Gal(b1-4)GlcNAc(b1-3)Gal(b1-4)GlcNAc(b1-2)Man(a1-3)]Man(b1-4)GlcNAc(b1-4)GlcNAc
# Method in brief: as §1
# [32] = molecular target: Gal(b1-4)GlcNAc(b1-3)Gal(b1-4)GlcNAc(b1-2)[Gal(b1-4)GlcNAc(b1-3)Gal(b1-4)GlcNAc(b1-6)]Man(a1-6)[Gal(b1-4)GlcNAc(b1-3)Gal(b1-4)GlcNAc(b1-2)Man(a1-3)]Man(b1-4)GlcNAc(b1-4)[Fuc(a1-6)]GlcNAc
# Method in brief: as §1
# [33] = molecular target: Gal(b1-4)GlcNAc(b1-3)Gal(b1-4)GlcNAc(b1-3)Gal(b1-4)GlcNAc
# Method in brief: as §1
# [34] = molecular target: Gal(b1-4)GlcNAc(b1-3)Gal(b1-4)GlcNAc(b1-3)Gal(b1-4)GlcNAc(b1-2)Man(a1-3)[Gal(b1-4)GlcNAc(b1-3)Gal(b1-4)GlcNAc(b1-3)Gal(b1-4)GlcNAc(b1-2)Man(a1-6)]Man(b1-4)GlcNAc(b1-4)GlcNAc
# Method in brief: as §1
# [35] = molecular target: Gal(b1-4)GlcNAc(b1-3)Gal(b1-4)GlcNAc(b1-3)Gal(b1-4)GlcNAc(b1-2)Man(a1-3)[Gal(b1-4)GlcNAc(b1-3)Gal(b1-4)GlcNAc(b1-3)Gal(b1-4)GlcNAc(b1-2)Man(a1-6)]Man(b1-4)GlcNAc(b1-4)[Fuc(a1-6)]GlcNAc
# Method in brief: as §1
# [36] = molecular target: Gal(b1-4)GlcNAc(b1-3)Gal(b1-4)GlcNAc(b1-3)Gal(b1-4)GlcNAc(b1-2)[Gal(b1-4)GlcNAc(b1-3)Gal(b1-4)GlcNAc(b1-3)Gal(b1-4)GlcNAc(b1-6)]Man(a1-6)[Gal(b1-4)GlcNAc(b1-3)Gal(b1-4)GlcNAc(b1-3)Gal(b1-4)GlcNAc(b1-2)Man(a1-3)]Man(b1-4)GlcNAc(b1-4)[Fuc(a1-6)]GlcNAc
# Method in brief: as §1
# [37] = molecular target: Gal(b1-4)GlcNAc(b1-3)Gal(b1-4)GlcNAc(b1-3)Gal(b1-4)GlcNAc(b1-3)Gal(b1-4)GlcNAc(b1-2)Man(a1-3)[Gal(b1-4)GlcNAc(b1-3)Gal(b1-4)GlcNAc(b1-3)Gal(b1-4)GlcNAc(b1-3)Gal(b1-4)GlcNAc(b1-2)Man(a1-6)]Man(b1-4)GlcNAc(b1-4)GlcNAc
# Method in brief: as §1
binder,measurement,setting,value
GS7807H-bfa-490-18-490 (Bacteroides fragilis) (protein) GNLEEMNIDPDNATQTHPKLLLTQICMNAFKRGTDGMYATKKVIQADGESADQYYKWTRGSFGYYDNLRNVQKMGEEAERVNAPVYTALTKFFRAYYFYELTLRFGDIPYSQALKGEKEEIYTPEYDAQEDVFAGILQELREADEILANDASVIDGDIIYNGNSTQWRKLINSFRLKVLMTLSNHTTVGNINIASEFKNIATNSPLMNSLADNGQLVYLDQQGNRYPQFNAQWSGYYMDDTFIQRMRERRDPRLFIFSAQTNKGKTEGKPIDDFSSYEGGDPAAPYSDAIIKVSEGTISPINDRFRTDPIVEPTMLMGYAELQQILAEAVVRGWISGNAQTYYEKGIRASFSFYETHAKDYAGYLNENAVAQYLKEPLVDFTQASGTEEQIERIIMQKYLVTFYQGNWDSFYEQLRTGYPDFRRPAGTEIPKRWMYPQGEYDNNGTNVETAITRQFGAGNDKINQATWWQKKS,glycan array binding signal (z-score),[1],-0.6
same,glycan array binding signal (z-score),[2],-0.24
same,glycan array binding signal (z-score),[3],0.14
same,glycan array binding signal (z-score),[4],-0.003
same,glycan array binding signal (z-score),[5],-0.322
same,glycan array binding signal (z-score),[6],-0.197
same,glycan array binding signal (z-score),[7],-0.459
same,glycan array binding signal (z-score),[8],1.09
same,glycan array binding signal (z-score),[9],-1.01
same,glycan array binding signal (z-score),[10],-0.8
same,glycan array binding signal (z-score),[11],-0.5
same,glycan array binding signal (z-score),[12],0.096
same,glycan array binding signal (z-score),[13],-0.044
same,glycan array binding signal (z-score),[14],-0.435
same,glycan array binding signal (z-score),[15],-0.465
same,glycan array binding signal (z-score),[16],-0.18
same,glycan array binding signal (z-score),[17],-0.018
same,glycan array binding signal (z-score),[18],-0.043
same,glycan array binding signal (z-score),[19],-0.67
same,glycan array binding signal (z-score),[20],-0.519
same,glycan array binding signal (z-score),[21],0.305
same,glycan array binding signal (z-score),[22],-0.207
same,glycan array binding signal (z-score),[23],-0.466
same,glycan array binding signal (z-score),[24],0.173
same,glycan array binding signal (z-score),[25],-0.184
same,glycan array binding signal (z-score),[26],-0.221
same,glycan array binding signal (z-score),[27],0.164
same,glycan array binding signal (z-score),[28],-0.224
same,glycan array binding signal (z-score),[29],0.869
same,glycan array binding signal (z-score),[30],-0.377
same,glycan array binding signal (z-score),[31],11.2
same,glycan array binding signal (z-score),[32],0.497
same,glycan array binding signal (z-score),[33],0.138
same,glycan array binding signal (z-score),[34],2.19
same,glycan array binding signal (z-score),[35],0.057
same,glycan array binding signal (z-score),[36],1.09
same,glycan array binding signal (z-score),[37],0.805
